Test results from PubChem BioAssay (NCATS).
Where “and” joins values, the source holds several entries; their conditions need not be identical. Identical values can stand only once. Inconclusive means that the source gave no clear call. Such entries were picked first, then a sample of the others. For some of these results: Where the call is inconclusive, the potency comes from a doubtful curve fit. Calls of active or inactive are those of the source. Calls come from the whole dose curve; as a rule, active = well fitted curve in the direction sought with a large enough effect; inconclusive = small, poorly fitted or top-dose-only effect, or another doubt; inactive = no such curve, though single readings can be large; an effect the other way counts as inactive or inconclusive.

How the values were obtained:
HEK293 = experiment: Cytotoxic Profiling of Annotated Libraries Using Quantitative High-Throughput Screening (AID 1296008); details: Five cell lines viability, CellTiter-Glo ATP luminescence, 48-72 h; max response: stronger effect = lower value; note: nearly all actives have a fitted effect of over 60% in size
Outline: (§1)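 Cytotoxicity was measured as CellTiter-Glo ATP luminescence, read after 10 min at room temperature. Compound treatment of the cells lasted 48 or 72 hr at 37 degrees Celsius in a qHTS format.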

NIH3T3 = experiment: as above; details: Five cell lines viability, CellTiter-Glo ATP luminescence, 48-72 h; max response: stronger effect = lower value
Outline: as §1

MCC-13 = experiment: qHTS assay to identify novel small-molecules to repurpose for Merkel cell carcinoma treatment (AID 1296009); details: MCC and control cell lines, CellTiter-Glo viability, 72 h; series mostly up to 46 µM; note: nearly all actives have a fitted effect of over 60% in size
Outline: (§2)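 72 hr, 37 degree celsius; NPC 8-pt / MIPE 11-pt dose response; compound pinned in DMSO; CellTiter-Glo, 10 min RT, luminescence; normalized to no-cell and DMSO controls.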

MKL-1 = experiment: as above; details: MCC and control cell lines, CellTiter-Glo viability, 72 h; series mostly up to 46 µM
Outline: as §2

UISO = experiment: as above; details: MCC and control cell lines, CellTiter-Glo viability, 72 h; series mostly up to 46 µM
Outline: as §2

[1] = Drug repurposing screens with cells derived from glioblastoma tumor samples (AID 1345199); details: GBM patient neurospheres viability, ATP luminescence, 48 h; Potency: tumour line A unless noted; activity, negative = cell killing: at 46 µM (top of the series), tumour line A unless noted; note: nearly all actives have a fitted effect of over 40% in size; for activity, negative = cell killing: % is set by controls: 0 for no effect and ±100 for the full control effect
Outline: (§3)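 Four patient lines of CD133+ GBM neurospheres were screened at several concentrations; hits were retested in those lines plus three slower-growing GBM lines, using 48-hour treatment and ATP-based viability.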

C33A = experiment: Primary qHTS to identify gynecologic anti-cancer compounds using libraries of approved drugs and bioactive compounds (AID 1345084); details: Gynecologic cancer cell panel viability, ATPlite luminescence, 48 h; series mostly up to 57.5 µM; note: nearly all actives have a fitted effect of over 55% in size; for activity change, negative = cytotoxicity: % is set by controls: 0 for no effect and ±100 for the full control effect
Outline: (§4)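 Cells, 1,000 per well, plated 16 h, then exposed 48 h at 37 C to compounds. Viability by ATPlite luminescence after 15 min at room temperature.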

CAOV3 = experiment: as above; details: Gynecologic cancer cell panel viability, ATPlite luminescence, 48 h; series mostly up to 57.5 µM
Outline: as §4

CASKI = experiment: as above; details: Gynecologic cancer cell panel viability, ATPlite luminescence, 48 h; activity change, negative = cytotoxicity: at 57.5 µM (top of the series)
Outline: as §4

Es-2 = experiment: as above; details: Gynecologic cancer cell panel viability, ATPlite luminescence, 48 h; series mostly up to 57.5 µM
Outline: as §4

MKL-2 = experiment: qHTS assay to identify novel small-molecules to repurpose for Merkel cell carcinoma treatment (AID 1296009); details: MCC and control cell lines, CellTiter-Glo viability, 72 h; series mostly up to 46 µM; note: nearly all actives have a fitted effect of over 60% in size
Outline: as §2

[2] = qHTS assay to identify inhibitors of the type 1 interferon - major histocompatibility complex class I in skeletal muscle: Counter screen cell viability and HiBit confirmation (AID 1347412); details: iHSKM muscle cells + IFN-b, HiBiT or CellTiter-Glo, 24 h; for activity change, negative = inhibition: at 45.9 µM (top of the series); for activity change, negative = inhibition: % is set by controls: 0 for no effect and ±100 for the full control effect; for all read-outs here: nearly all actives have a fitted effect of over 60% in size
Outline: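 Human myoblast knock-in line, 4.0 ng/ml IFN-beta stimulation, 24 h compound treatment. Endpoints: HiBiT lytic luminescence (HLA-B level) and CellTiter Glo (ATP). Dosing 12 concentrations, 3-fold steps, 46 uM highest final.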

WaGa = experiment: qHTS assay to identify novel small-molecules to repurpose for Merkel cell carcinoma treatment (AID 1296009); details: MCC and control cell lines, CellTiter-Glo viability, 72 h; series mostly up to 46 µM; note: nearly all actives have a fitted effect of over 60% in size
Outline: as §2

KB-3-1 = experiment: Cytotoxic Profiling of Annotated Libraries Using Quantitative High-Throughput Screening (AID 1296008); details: Five cell lines viability, CellTiter-Glo ATP luminescence, 48-72 h; max response: stronger effect = lower value; note: nearly all actives have a fitted effect of over 60% in size
Outline: as §1

W2 = experiment: qHTS profiling for inhibitors of Plasmodium falciparum proliferation (AID 504749); note: nearly all actives have a fitted effect of over 60% in size; details: P. falciparum in erythrocytes, SYBR Green DNA, 72 h; series mostly up to 28.7 µM
Outline: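 Infected RBCs, 0.3% parasitemia/2.5% Hct final; cpd 72 h, 37 C, 5% CO2; lysis buffer with saponin/triton/SYBR Green I, o/n RT dark; FI 485/535; norm. to artemisinin (0.29 uM) and DMSO.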

astro = experiment: Drug repurposing screens with cells derived from glioblastoma tumor samples (AID 1345199); details: viability, ATP luminescence, 48 h; activity, negative = cell killing: at 45.9 µM (top of the series); note: nearly all actives have a fitted effect of over 40% in size; for activity, negative = cell killing: % is set by controls: 0 for no effect and ±100 for the full control effect
Outline: as §3
Potency is the fitted concentration of half-maximal effect; tags give direction and shape of the fitted curve.

For `CCOc1ccc2nc3cc(N)ccc3c(N)c2c1`, the Potency (HEK293) was inconclusive: 18.8 µM [inhibitor, partial curve, poor fit], the Potency (NIH3T3) was inconclusive: 23.7 µM [inhibitor, single point] and the Potency (MCC-13) was inconclusive: 26.6 µM [inhibitor, partial curve]. The Potency (MKL-1) was active: 5.96 µM, the Potency (UISO) was active: 8.41 µM and the Potency [1] was “inactive”. The Potency (C33A) was inconclusive: 39.8 µM [cytotoxic, single point], the Potency (CAOV3) was active: 12.6 µM and the Potency (CASKI) was inconclusive: 28.2 µM [cytotoxic, single point]. For the same compound, the Potency (Es-2) was “inactive”.

In the case of `CC(C)c1cnn2c(NCc3ccccc3)cc(NCCCCCCN)nc12`, the Potency (HEK293) is reported as inconclusive: 33.2 µM [inhibitor, single point], the Potency (MKL-1) is reported as inconclusive: 26.4 µM [inhibitor, single point] and the Potency (MKL-2) is reported as inconclusive: 37.2 µM [inhibitor, partial curve, poor fit]. For the same compound, the activity change, negative = inhibition ([2]; HiBiT) was inactive: -24%.

For `O=C1[C@H]2CCCC[C@H]2C(=O)N1CCCCN1CCN(c2nsc3ccccc23)CC1`, the Potency (HEK293) was inconclusive: 33.5 µM [inhibitor, single point], the Potency (MKL-2) was inconclusive: 29.9 µM [inhibitor, single point] and the Potency (UISO) was active: 10.6 µM. The Potency (WaGa) was inconclusive: 26.6 µM [inhibitor, single point].

With `CC(C)C[C@H](NC(=O)[C@@H](O)[C@H](N)Cc1ccccc1)C(=O)O` the Potency (HEK293) was inconclusive: 33.2 µM [inhibitor, single point], the Potency (KB-3-1) was inconclusive: 37.2 µM [inhibitor, single point] and the Potency (MKL-2) was inconclusive: 23.5 µM [inhibitor, single point]. The Potency (UISO) was inconclusive: 26.4 µM [inhibitor, single point].

In the case of `CCOC(=O)OC(C)OC1=C(C(=O)Nc2ccccn2)N(C)S(=O)(=O)c2ccccc21` (stereo not given), the Potency (W2) is reported as inconclusive: 1.69 µM [inhibitor, single point], the outcome (HEK293) is reported as “inactive” and the Potency (MKL-1) is reported as “inactive”. The Potency (WaGa) was “inactive”, the Potency [1] was inconclusive: 17.8 µM [inhibitor, partial curve] and the Potency (C33A) was “inactive”.

For `CCCCCCCN(CC)CCCC(O)c1ccc(NS(C)(=O)=O)cc1` (stereo not given), the Potency (HEK293) was inconclusive: 37.2 µM [inhibitor, single point], the Potency (MKL-1) was “inactive” and the Potency (WaGa) was “inactive”.

For `CCC(=O)c1ccc2c(c1)N(CCCN(C)C)c1ccccc1S2`, the Potency (HEK293) was inconclusive: 26.6 µM [inhibitor, single point], the Potency (MKL-1) was inconclusive: 23.7 µM [inhibitor, single point] and the Potency (MKL-2) was inconclusive: 33.5 µM [inhibitor, single point]. For the same compound, the Potency (UISO) was inconclusive: 33.5 µM [inhibitor, partial curve, poor fit], the Potency (astro) was inconclusive: 12.6 µM [inhibitor, partial curve] and the Potency (C33A) was “inactive”. The Potency (CAOV3) was inconclusive: 28.2 µM [cytotoxic, single point] and the Potency (CASKI) was “inactive”.

For `C=C(CC)C(=O)c1ccc(OCC(=O)O)c(Cl)c1Cl`, the Potency (W2) was inconclusive: 16.9 µM [inhibitor, single point], the Potency (HEK293) was inconclusive: 33.5 µM [inhibitor, single point] and the Potency (MCC-13) was inconclusive: 15 µM [inhibitor, partial curve]. The Potency (UISO) was inconclusive: 21.1 µM [inhibitor, single point] and the Potency (astro) was inconclusive: 17.8 µM [inhibitor, partial curve].

For `CS(=O)(=O)c1ccc([C@@H](O)[C@@H](CO)NC(=O)C(Cl)Cl)cc1`, the Potency (HEK293) was active: 2.99 µM and inconclusive: 2.96 µM [inhibitor, full curve, poor fit], the Potency (KB-3-1) was inconclusive: 5.56 µM [inhibitor, partial curve, poor fit] and the Potency (UISO) was “inactive”. The Potency (astro) was “inactive”.

With `CCCCCN=C(N)N/N=C/c1c[nH]c2ccc(OC)cc12` the Potency ([2]; HiBiT) was inconclusive: 24.9 µM [inhibitor, single point] and the Potency ([2]; Viability) was inconclusive: 27.9 µM [cytotoxic, partial curve, poor fit].

With `CC[C@@H]1C(=O)N(C)c2cnc(Nc3ccc(C(=O)NC4CCN(C)CC4)cc3OC)nc2N1C1CCCC1` the Potency ([2]; HiBiT) was inconclusive: 8.83 µM [inhibitor, partial curve].

For `CN(C)c1ccc(C(=C2C=CC(=[N+](C)C)C=C2)c2ccc(N(C)C)cc2)cc1`, the Potency ([2]; Viability) was active: 9.91 µM.

In the case of `CCOC(=O)C1=C(C)NC2=C(C(=O)CC(C)(C)C2)C1c1ccc(-c2ccccc2)cc1` (stereo not given), the activity change, negative = inhibition ([2]; Viability) is reported as inactive: -16.2%.

In the case of `C=C1CC[C@@H]2[C@](C)(CO)[C@H](O)CC[C@@]2(C)[C@@H]1C/C=C1/C(=O)OC[C@H]1O`, the Potency (KB-3-1) is reported as inconclusive: 20.6 µM [inhibitor, partial curve, poor fit].

For `C[C@]12O[C@H](C[C@]1(O)CO)n1c3ccccc3c3c4c(c5c6ccccc6n2c5c31)CNC4=O`, the Potency (KB-3-1) was inconclusive: 29.1 µM [inhibitor, single point].
